Assay [1] has as its system HSkMC (human skeletal muscle cells). Briefly: cytotoxicity call (relative viability < 0.9). Conditions: 10 µM.
Assay [2] has as its system HepG2. The experiment in a line: cytotoxicity call (relative viability < 0.9). The conditions noted are these: 10 µM.
Assay [3] deals with S. aureus RN4220. Briefly: growth inhibition call (relative growth <= 0.2). The conditions noted are these: 50 µM.

This is one part of the list.

The record followed here is the antibiotic and cytotoxicity screens of Wong et al. (2023).

Regarding `COc1cccc(S(=O)(=O)N(C)C[C@@H]2OCc3cn(nn3)CCCC(=O)N([C@H](C)CO)C[C@H]2C)c1`, the cytotoxicity call in assay [1] and in assay [2] was “inactive” each time. In assay [3], the growth inhibition call was “inactive”.

For the molecule `Cc1noc(C)c1NC(=O)N(C)C[C@@H]1Oc2c(NC(=O)c3ccc(-c4nccs4)cc3)cccc2C(=O)N([C@H](C)CO)C[C@@H]1C`, the cytotoxicity call in assay [1] and in assay [2] was “inactive” throughout. For the same molecule, the growth inhibition call in assay [3] was “inactive”.

For `COc1ccc(CN(C)C[C@@H]2OCCCC[C@H](C)Oc3ccc(NC(=O)c4ccccc4)cc3C(=O)N([C@H](C)CO)C[C@@H]2C)cc1`, the cytotoxicity call in assay [1] and in assay [2] was “inactive” throughout. Further, in assay [3], the growth inhibition call was “inactive”.

For `COc1ccc(NC(=O)Nc2ccc3c(c2)C(=O)N([C@H](C)CO)C[C@H](C)[C@H](CN(C)CC2CC2)OCCCC[C@@H](C)O3)cc1`, the cytotoxicity call in assay [1] and in assay [2] was “inactive” each time. Further, the growth inhibition call in assay [3] was “inactive”.

On to `Cc1noc(C)c1NC(=O)N(C)C[C@H]1Oc2ccc(NC(=O)c3ccncc3)cc2C(=O)N([C@@H](C)CO)C[C@H]1C`, for which the cytotoxicity call in assay [1] and in assay [2] was “inactive” each time. In assay [3], the growth inhibition call was “inactive”.

Consider `CC(C)CC(=O)Nc1cncc(-c2ccc3[nH]nc(-c4nc5cncc(-c6cccc(F)c6)c5[nH]4)c3c2)c1`, for which the cytotoxicity call in assay [1] and in assay [2] was “active” in each case. Besides, the growth inhibition call in assay [3] is “inactive”.

Turning to `COc1cccc(-c2ccc3n(c2=O)C[C@@H]2[C@@H](CO)[C@H](C(=O)NCC4CC4)[C@H]3N2S(C)(=O)=O)c1`, the cytotoxicity call in assay [1] and in assay [2] was “inactive” each time. Moreover, the growth inhibition call in assay [3] is “inactive”.

Consider `C[C@H]1CN([C@@H](C)CO)C(=O)Cc2cc(NC(=O)Nc3cccc4ccccc34)ccc2O[C@H]1CN(C)C(=O)Nc1cccc2ccccc12`, for which the cytotoxicity call in assay [1] and in assay [2] was “inactive” throughout. The growth inhibition call in assay [3] was “inactive”.

With `CCOC(=O)CCn1cc(F)c(=O)[nH]c1=O`, the cytotoxicity call in assay [1] and in assay [2] was “inactive” each time. For the same molecule, in assay [3], the growth inhibition call was “inactive”.

`Cc1ccc(S(=O)(=O)N(C)C[C@@H]2Oc3ccc(NC(=O)CCN4CCOCC4)cc3C(=O)N([C@H](C)CO)C[C@@H]2C)cc1`: the cytotoxicity call in assay [1] and in assay [2] was “inactive” each time. For the same molecule, the growth inhibition call in assay [3] is “inactive”.

For `CO[C@@H](CN(C)S(=O)(=O)c1ccc(F)cc1)[C@@H](C)CN([C@@H](C)CO)S(=O)(=O)c1cccc(Cl)c1`, the cytotoxicity call in assay [1] and in assay [2] was “inactive” throughout. Also, the growth inhibition call in assay [3] was “inactive”.

Turning to `O=C(Cc1ccncc1)Nc1ccc2c(c1)[C@H]1C[C@@H](CC(=O)N3CCc4ccccc4C3)O[C@H](CO)[C@H]1O2`, the cytotoxicity call in assay [1] and in assay [2] was “inactive” throughout. In assay [3], the growth inhibition call was “inactive”.

As for `C[C@@H]1CCCCO[C@@H](CN(C)C(=O)Cc2ccccc2)[C@H](C)CN([C@H](C)CO)C(=O)c2cc(NC(=O)c3ccccc3)ccc2O1`, the cytotoxicity call in assay [1] and in assay [2] was “inactive” each time. Further, the growth inhibition call in assay [3] was “inactive”.

Turning to `C[C@@H]1CN([C@@H](C)CO)C(=O)Cc2cc(NC(=O)Cc3ccccc3)ccc2O[C@@H]1CN(C)S(=O)(=O)c1ccc(F)cc1`, the cytotoxicity call in assay [1] and in assay [2] was “inactive” each time. Moreover, in assay [3], the growth inhibition call was “inactive”.

In the case of `Cc1ccc(S(=O)(=O)N(C)C[C@@H]2Oc3c(NC(=O)Nc4ccc(C(F)(F)F)cc4)cccc3C(=O)N([C@H](C)CO)C[C@H]2C)cc1`, the cytotoxicity call in assay [1] and in assay [2] was “inactive” in each case. Further, the growth inhibition call in assay [3] was “inactive”.

In the case of `C[C@@H]1CN([C@H](C)CO)C(=O)c2cc(C#CCc3ccccc3)cnc2O[C@@H]1CN(C)C(=O)Cc1cccnc1`, the cytotoxicity call in assay [1] and in assay [2] was “inactive” each time. Further, the growth inhibition call in assay [3] is “inactive”.

Turning to `Nc1ccc(C(=O)O)cc1`, the cytotoxicity call in assay [1] and in assay [2] was “inactive” in each case. Further, in assay [3], the growth inhibition call was “inactive”.

For `C[C@@H]1CN([C@H](C)CO)C(=O)c2cc(NC(=O)Nc3ccc4c(c3)OCO4)ccc2O[C@@H](C)CCCCO[C@@H]1CN(C)C(=O)NC1CCCCC1`, the cytotoxicity call in assay [1] and in assay [2] was “inactive” throughout. Further, the growth inhibition call in assay [3] was “inactive”.

In the case of `C[C@@H]1CN([C@H](C)CO)C(=O)c2cc(NS(=O)(=O)c3cccs3)ccc2O[C@H]1CN(C)S(=O)(=O)c1ccc(F)cc1`, the cytotoxicity call in assay [1] and in assay [2] was “inactive” each time. Moreover, the growth inhibition call in assay [3] was “inactive”.

On to `COc1ccc(CN(C)C[C@@H]2OCCCC[C@@H](C)Oc3ccc(NS(=O)(=O)c4ccccc4)cc3C(=O)N([C@@H](C)CO)C[C@@H]2C)cc1`, for which the cytotoxicity call in assay [1] and in assay [2] was “inactive” each time. For the same molecule, in assay [3], the growth inhibition call is “inactive”.

In the case of `C[C@@H]1CN([C@@H](C)CO)C(=O)Cc2cc(NC(=O)c3ccncc3)ccc2O[C@@H]1CN(C)C(=O)Nc1ccc2c(c1)OCO2`, the cytotoxicity call in assay [1] and in assay [2] was “inactive” in each case. The growth inhibition call in assay [3] is “inactive”.

Turning to `CC12CCC(CC1)C(C)(C)O2`, the cytotoxicity call in assay [1] and in assay [2] was “inactive” in each case. Besides, the growth inhibition call in assay [3] is “inactive”.

As for `CC(C=CC1=C(C)CCCC1(C)C)=CC=CC(C)=CCO`, the cytotoxicity call in assay [1] and in assay [2] was “inactive” each time. In assay [3], the growth inhibition call is “inactive”.

Turning to `CC(C)NC(=O)N(C)C[C@H]1Oc2ncc(-c3ccc(C(=O)N(C)C)cc3)cc2C(=O)N([C@H](C)CO)C[C@@H]1C`, the cytotoxicity call in assay [1] and in assay [2] was “inactive” in each case. Further, the growth inhibition call in assay [3] is “inactive”.

As to `C[C@@H]1CN([C@@H](C)CO)C(=O)c2cc(NC(=O)Nc3ccc(C(F)(F)F)cc3)ccc2O[C@@H](C)CCCCO[C@H]1CN(C)C(=O)Cc1ccccc1`, the cytotoxicity call in assay [1] is “active”. In addition, the cytotoxicity call in assay [2] is “inactive”. Further, the growth inhibition call in assay [3] was “inactive”.
